Assay results taken from article PMC4336329 (PLoS ONE, 2015).
Screen size: about 310,000 compounds; about 14,000 (4.5%) showed an effect of 50% or more. Effects have a minus sign here. Some of the results follow.

Biological target: human ether-à-go-go-related gene (hERG) potassium channel (human, UniProt Q12809)
Experiment: primary screen, population patch clamp on CHO cells stably expressing hERG
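Further: peak tail current of the secondary pulse compared with the same well before compound.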

Chain of human ether-à-go-go-related gene (hERG) potassium channel (Q12809 whole entry, looked up): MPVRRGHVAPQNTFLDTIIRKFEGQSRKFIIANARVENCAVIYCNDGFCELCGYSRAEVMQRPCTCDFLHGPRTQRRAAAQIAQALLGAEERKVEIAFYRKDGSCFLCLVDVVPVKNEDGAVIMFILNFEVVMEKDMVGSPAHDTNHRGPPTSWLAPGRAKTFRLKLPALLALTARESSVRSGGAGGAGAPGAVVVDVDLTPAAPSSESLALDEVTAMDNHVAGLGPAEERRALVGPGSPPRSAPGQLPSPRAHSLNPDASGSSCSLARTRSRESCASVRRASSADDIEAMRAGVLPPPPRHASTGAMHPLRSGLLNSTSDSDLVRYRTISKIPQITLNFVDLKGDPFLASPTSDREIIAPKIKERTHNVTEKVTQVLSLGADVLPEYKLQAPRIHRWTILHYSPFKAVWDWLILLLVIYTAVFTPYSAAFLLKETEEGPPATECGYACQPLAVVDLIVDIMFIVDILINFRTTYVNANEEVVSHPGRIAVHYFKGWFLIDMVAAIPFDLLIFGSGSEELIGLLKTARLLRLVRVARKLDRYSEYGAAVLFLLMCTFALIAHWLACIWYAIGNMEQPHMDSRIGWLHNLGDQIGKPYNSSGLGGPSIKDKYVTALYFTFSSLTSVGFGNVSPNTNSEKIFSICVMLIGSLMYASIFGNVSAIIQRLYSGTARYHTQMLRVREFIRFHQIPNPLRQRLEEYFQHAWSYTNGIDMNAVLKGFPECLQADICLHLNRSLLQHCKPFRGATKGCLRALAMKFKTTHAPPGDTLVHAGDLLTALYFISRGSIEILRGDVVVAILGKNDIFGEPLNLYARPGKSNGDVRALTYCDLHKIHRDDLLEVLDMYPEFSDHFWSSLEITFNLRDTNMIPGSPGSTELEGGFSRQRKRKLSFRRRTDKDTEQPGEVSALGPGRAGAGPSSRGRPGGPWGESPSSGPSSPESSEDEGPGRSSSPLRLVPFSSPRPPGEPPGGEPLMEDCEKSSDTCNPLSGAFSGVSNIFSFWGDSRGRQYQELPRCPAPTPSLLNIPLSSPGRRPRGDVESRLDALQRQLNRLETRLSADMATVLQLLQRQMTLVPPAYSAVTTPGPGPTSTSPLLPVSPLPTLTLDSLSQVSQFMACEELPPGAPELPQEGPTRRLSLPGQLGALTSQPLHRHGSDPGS

SMILES	hERG current change (%, negative = inhibition) at 10uM
Cc1cc(NC(=O)c2ccc3[nH]c(C)c(C)c3c2)ccn1	-2.11%
NS(=O)(=O)c1ccc(CCNC(=O)CCCNC(=O)c2ccc(Cl)cc2)cc1	13.5%
O=C(CCS(=O)(=O)c1cccs1)Nc1ccc(C(=O)NC2CCCC2)cc1	12.3%
CC(C)n1c(SCC(=O)Nc2nncs2)nnc1-c1ccco1	-22.8%
COCCOC(=O)C1=C(C)OC(N)=C(C#N)C1c1ccc2c(c1)OCO2 (stereo not shown)	-0.292%
COc1cc(NC(=O)c2cccc(C)c2)ccc1NC(=O)c1cc2ccccc2o1	6.25%
COc1ccc(-c2nnc(SCC(=O)NCc3ccco3)n2C)cc1	-17%
Cc1ccc(C(C(=O)Nc2ccc3c(c2)OCO3)N(C)C(=O)Cc2c[nH]c3ccccc23)cc1 (stereo not shown)	1.58%
COc1cc(C)ccc1OCc1cc(C(=O)N(Cc2c(C)nn(C)c2C)C2CC2)no1	-16.8%
O=S(=O)(Cc1ccc(Cl)cc1)CC(O)COCc1ccccc1 (stereo not shown)	9.12%
COc1ccc(C)cc1NC(=O)C1CCN(S(=O)(=O)c2cccc3nonc23)CC1	11.1%
CCCCCn1c(=O)[nH]c2cc(C(=O)N3CCN(C(=O)OCC)CC3)ccc2c1=O	-9.61%
CCOc1ccc(CNC(=O)C2Cc3cc(S(=O)(=O)N4CCCC4)ccc3N2C(C)=O)cc1 (stereo not shown)	-18.4%
COc1ccc2[nH]c(=O)c(CN(c3ccccc3OC)S(=O)(=O)c3ccccc3)cc2c1	0.00668%
CCN1CCCC1CNC(=O)c1cc(S(=O)(=O)CC)c(N)cc1OC (stereo not shown)	-5.06%
Cc1ccc(S(=O)(=O)c2nc(-c3ccco3)oc2NCC2CCCO2)cc1 (stereo not shown)	-2.87%
Nc1nccnc1C(=O)OCC(=O)NC1CCCc2ccccc21 (stereo not shown)	20.9%
O=C1NCCN(Cc2ccc(F)cc2)C1CC(=O)N1CC=C(c2ccccc2)CC1 (stereo not shown)	19.5%
Cc1onc(-c2c(Cl)cccc2Cl)c1C(=O)N1CCc2ccccc21	-19.9%
O=S(=O)(Nc1cccc2cccnc12)c1ccc(S(=O)(=O)N2CCCC2)cc1	-11%
COc1ccc(/C=N/Nc2nnc(-c3ccccc3)c(=O)[nH]2)cc1	11.9%
CN(CC(=O)Nc1ccc(Cl)cc1)C1CCCCC1	-10%

SMILES	hERG current change (%, negative = inhibition) at 10uM
Cl.N=c1sccn1CC(=O)NC(c1ccccc1)c1ccccc1	-63.3%
Cc1cccc(C(=O)Nc2ccnc(-c3cccnc3)n2)c1	-7.39%
CCCNC(=O)Nc1ccc(C)cc1C	21.2%
Cl.O=C(OCC1CCNCC1)c1ccc2c(c1)OCO2	13.9%
Cc1ccc(S(=O)(=O)N2CCC(C(=O)NNC(=O)c3ccccc3)CC2)cc1	18.9%
CC(C)c1cc(NC(=O)CCl)on1	27.9%
Cc1ccc(NC(=O)C2CCN(C(=O)c3cccs3)CC2)cc1	-3.2%
Cc1ccc(-c2nnc(CSc3nncn3N)o2)cc1	3.64%
Cc1ccc(C)c(NC(=S)N2CCCC2)c1	10.4%
CSc1ncccc1C(=O)OCC(=O)N(CC(C)C)C1CCS(=O)(=O)C1 (stereo not shown)	-0.0479%
Cn1c(=O)c2c3c(sc2n2cnnc12)CCC3	6.78%
C[C@H](C(O)c1ccccc1)N(C)C(=O)CN (stereo partly shown)	2.95%
COc1ccc(S(=O)(=O)N2CCOC23CCN(C(=O)c2ccccc2Br)CC3)cc1	-26.7%
CCCc1cc(=O)[nH]c2nnc(SCC(=O)NC3CCCCC3)n12	-11.2%
O=C(Nc1nnc(-c2cccnc2)s1)c1cccs1	-21.4%
CCN(CC)C(=O)CSc1nc2cc3c(cc2c(=O)n1CCCC(=O)NCc1ccc(OC)cc1)OCO3	-21.8%
COc1ccc(S(=O)(=O)Nc2c3ccccc3nc(=O)n2-c2ccccc2)cc1	13.2%
CCOC(=O)c1sc(N=Nc2c(O)[nH]c(=O)[nH]c2=O)c(C(=O)OCC)c1C	1.89%
COc1ccc(-c2n[nH]c(C(F)(F)F)c2-c2cc3ccccc3o2)c(O)c1	1.13%
Cn1nc(C(F)(F)F)c(-c2ccc(F)cc2)c1NC(=O)c1ccco1	-32.8%
CCOC(=O)c1ccc(S(=O)(=O)N2CCN(C(=O)c3nn(C)c(=O)c4ccccc34)CC2)cc1	-26.5%
Cc1nn(C(=O)N2CCCCC2)c(C)c1CN1C(=O)c2ccccc2C1=O	2.93%

SMILES	hERG current change (%, negative = inhibition) at 10uM
CCOC(=O)c1c(C)c(C(=O)N2CCCCCC2)c(C)n1C	10%
N#CC(c1ccccc1)(c1ncc(C(F)(F)F)cc1Cl)N1CCOCC1 (stereo not shown)	4.23%
CCN(CC)c1ccc(C2Nc3cccc4cccc(c34)N2)c(O)c1	22.6%
CCc1ccc[n+](-c2[nH]c(=O)sc2/C=N/N=C(\[O-])c2cccnc2)c1	19.9%
COc1ccc(CCN2C(=O)c3[nH]nc(-c4ccccc4O)c3C2c2cccc(O)c2)cc1OC (stereo not shown)	-1.32%
Cc1ccc(Cl)cc1NC(=O)c1cc2ccccc2cc1O	-15.5%
CCc1c(C)sc(NC(=O)C2CC2)c1C(=O)OC(C)C	-10.9%
CCc1nnc(NS(=O)(=O)c2ccc(NC(=O)c3ccc(C#N)cc3)cc2)s1	22.7%
CCOC(=O)N1CCC(NC(=O)C2CCN(C(=O)N3CCOc4ccccc43)CC2)CC1	12.6%
Cn1ccsc1=NC(=O)c1ccc(OC(F)(F)F)cc1	9.41%
O=S(=O)(Nc1nc2ccccc2nc1N1CCc2ccccc2C1)c1ccc(Cl)cc1	7.74%
Cc1ccc(S(=O)(=O)N(C)Cc2ccc(C(=O)N/N=C3\CCCC(=O)C3)cc2)cc1	4.23%
Cn1c(=O)cc(OCC(=O)N2CCN(C3CCCCC3)CC2)c2ccccc21	-18.6%
CC1(OC(=O)CCc2ccccc2)C(=O)C=C2C=C(c3ccc(C#N)cc3)N(Cc3ccccc3)C=C2C1=O (stereo not shown)	-51.9%
CC1CC(C)CN(c2ncc3c(n2)CC(c2ccc(Cl)cc2)CC3=O)C1 (stereo not shown)	12.2%
Cn1cc(C(=O)N2CCCCCC2)c(=O)c2cc(S(=O)(=O)N3CCCCC3)ccc21	9.15%
O=S1(=O)C=C(Oc2ccc3ccccc3c2)c2ccccc21	7.45%
Cn1c(=O)[nH]c(=O)c2c1nc(N1CCCC1)n2CCCSc1nnnn1-c1ccccc1	-13.5%
Cc1cccc(C)c1NC(=O)C1(NC(=O)C2CCC(=O)N2)CCCCC1 (stereo not shown)	6.61%
COc1ccccc1C(=O)C1CCCN(Cc2cnc(C)s2)C1 (stereo not shown)	-8.13%
Fc1ccc(/C=N/n2c(C3CCCCC3)n[nH]c2=S)cc1	11.1%
COc1ccccc1NC(=O)c1ccc(-c2ccccc2[N+](=O)[O-])o1	26.7%

SMILES	hERG current change (%, negative = inhibition) at 10uM
O=C(Nc1cccc(Cl)c1Cl)c1ccccc1NC(=O)C1CC=CCC1C(=O)O (stereo not shown)	4.38%
CC1=CC(C/C(C)=C/COc2ccc3ccc(=O)oc3c2)OC1=O (stereo not shown)	2.36%
CC1CCN(C(=O)c2ccccc2NC(=O)c2cccs2)CC1	-1.21%
O=[N+]([O-])c1cccc(-c2nc(-c3ccccn3)no2)c1	4.68%
Cc1nn(CC2CCCCC2)c(N)c1-c1ccccc1	-12.2%
CCCCCCn1c(N2CCCC2)nc2c1c(=O)[nH]c(=O)n2C	-43%
CCc1ccc(NC(=O)Cn2nnc(-c3ccc(C)cc3-n3cnnn3)n2)cc1	0.635%
Cc1cc(OC(C)C(=O)N[C@H](C(=O)O)c2ccccc2)c2c3c(c(=O)oc2c1)CCC3 (stereo partly shown)	-3.23%
COc1cccc(NC(=S)N(Cc2cccc(Br)c2)CC2CCC(C(=O)O)CC2)c1 (stereo not shown)	2.19%
CC(C)CCNC(=O)c1cc(-c2cccs2)nc2ccccc12	5.1%
CC(=O)Nc1cccc(OCc2c(F)cccc2Cl)c1	3.13%
O=C(CCNS(=O)(=O)c1cccc2nonc12)NC1CCCCCC1	8.64%
COc1ccc(NC(=O)C2CCC(C)(C(=O)O)C2(C)C)cc1 (stereo not shown)	-6.39%
Cc1cc(C(=O)N/N=C/c2ccc(OCc3ccccc3)cc2)c(C)o1	17.4%
NC(=O)NNC1=Nc2cccc3cccc1c23	9.25%
Cn1c(Cn2cnc3ccccc32)nc2ccccc21	11.4%
COC(=O)C1CCN(S(C)(=O)=O)CC1	4.45%
CN1CCC(=O)N([C@H](CN=[N+]=[N-])Cc2ccccc2)CC1	17.9%
O=C(Nc1ccc2ccccc2c1)N1CCN(c2ncccc2C(F)(F)F)CC1	-7.58%
C[C@@H]1CN(C(=O)c2nc3ccc(Cl)cn3c2CN(C)CCc2cnn(C)c2)C[C@H](C)O1	-14.3%
CCOc1ccccc1Nc1nc2ccccc2[nH]1	-2.59%
Cc1onc(-c2ccccc2Cl)c1C(=O)NCCCN1CCOCC1	9.97%
